# From the supplement of paper PMC12423691
# This is one part of the list. Binding of human transcription factors and regulators to the viral nucleoprotein by AlphaScreen, crude cell-free proteins, amounts not normalised, one pass. Fold of the Venus control; higher = more signal. No active / inactive call. Single-pass screen; sequences are the whole Swiss-Prot entries looked up by name.
# B1: MYOCD, Q8IZQ8 (protein)
# chain: MTLLGSEHSLLIRSKFRSVLQLRLQQRRTQEQLANQGIIPPLKRPAEFHEQRKHLDSDKAKNSLKRKARNRCNSADLVNMHILQASTAERSIPTAQMKLKRARLADDLNEKIALRPGPLELVEKNILPVDSAVKEAIKGNQVSFSKSTDAFAFEEDSSSDGLSPDQTRSEDPQNSAGSPPDAKASDTPSTGSLGTNQDLASGSENDRNDSASQPSHQSDAGKQGLGPPSTPIAVHAAVKSKSLGDSKNRHKKPKDPKPKVKKLKYHQYIPPDQKAEKSPPPMDSAYARLLQQQQLFLQLQILSQQQQQQQHRFSYLGMHQAQLKEPNEQMVRNPNSSSTPLSNTPLSPVKNSFSGQTGVSSFKPGPLPPNLDDLKVSELRQQLRIRGLPVSGTKTALMDRLRPFQDCSGNPVPNFGDITTVTFPVTPNTLPNYQSSSSTSALSNGFYHFGSTSSSPPISPASSDLSVAGSLPDTFNDASPSFGLHPSPVHVCTEESLMSSLNGGSVPSELDGLDSEKDKMLVEKQKVINELTWKLQQEQRQVEELRMQLQKQKRNNCSEKKPLPFLAASIKQEEAVSSCPFASQVPVKRQSSSSECHPPACEAAQLQPLGNAHCVESSDQTNVLSSTFLSPQCSPQHSPLGAVKSPQHISLPPSPNNPHFLPSSSGAQGEGHRVSSPISSQVCTAQMAGLHSSDKVGPKFSIPSPTFSKSSSAISEVTQPPSYEDAVKQQMTRSQQMDELLDVLIESGEMPADAREDHSCLQKVPKIPRSSRSPTAVLTKPSASFEQASSGSQIPFDPYATDSDEHLEVLLNSQSPLGKMSDVTLLKIGSEEPHFDGIMDGFSGKAAEDLFNAHEILPGPLSPMQTQFSPSSVDSNGLQLSFTESPWETMEWLDLTPPNSTPGFSALTTSSPSIFNIDFLDVTDLNLNSSMDLHLQQW
# B2: E2F6, O75461 (protein)
# chain: MSQQRPARKLPSLLLDPTEETVRRRCRDPINVEGLLPSKIRINLEDNVQYVSMRKALKVKRPRFDVSLVYLTRKFMDLVRSAPGGILDLNKVATKLGVRKRRVYDITNVLDGIDLVEKKSKNHIRWIGSDLSNFGAVPQQKKLQEELSDLSAMEDALDELIKDCAQQLFELTDDKENERLAYVTYQDIHSIQAFHEQIVIAVKAPAETRLDVPAPREDSITVHIRSTNGPIDVYLCEVEQGQTSNKRSEGVGTSSSESTHPEGPEEEENPQQSEELLEVSN
# B3: CDX1, P47902 (protein)
# chain: MYVGYVLDKDSPVYPGPARPASLGLGPQAYGPPAPPPAPPQYPDFSSYSHVEPAPAPPTAWGAPFPAPKDDWAAAYGPGPAAPAASPASLAFGPPPDFSPVPAPPGPGPGLLAQPLGGPGTPSSPGAQRPTPYEWMRRSVAAGGGGGSGKTRTKDKYRVVYTDHQRLELEKEFHYSRYITIRRKSELAANLGLTERQVKIWFQNRRAKERKVNKKKQQQQQPPQPPMAHDITATPAGPSLGGLCPSNTSLLATSSPMPVKEEFLP
# B4: SIX1, Q15475 (protein)
# chain: MSMLPSFGFTQEQVACVCEVLQQGGNLERLGRFLWSLPACDHLHKNESVLKAKAVVAFHRGNFRELYKILESHQFSPHNHPKLQQLWLKAHYVEAEKLRGRPLGAVGKYRVRRKFPLPRTIWDGEETSYCFKEKSRGVLREWYAHNPYPSPREKRELAEATGLTTTQVSNWFKNRRQRDRAAEAKERENTENNNSSSNKQNQLSPLEGGKPLMSSSEEEFSPPQSPDQNSVLLLQGNMGHARSSNYSLPGLTASQPSHGLQTHQHQLQDSLLGPLTSSLVDLGS
# B5: RBPJL, Q9UBG7 (protein)
# chain: MDPAGAADPSVPPNPLTHLSLQDRSEMQLQSEADRRSLPGTWTRSSPEHTTILRGGVRRCLQQQCEQTVRILHAKVAQKSYGNEKRFFCPPPCVYLSGPGWRVKPGQDQAHQAGETGPTVCGYMGLDSASGSATETQKLNFEQQPDSREFGCAKTLYISDADKRKHFRLVLRLVLRGGRELGTFHSRLIKVISKPSQKKQSLKNTDLCISSGSKVSLFNRLRSQTVSTRYLSVEDGAFVASARQWAAFTLHLADGHSAQGDFPPREGYVRYGSLVQLVCTVTGITLPPMIIRKVAKQCALLDVDEPISQLHKCAFQFPGSPPGGGGTYLCLATEKVVQFQASPCPKEANRALLNDSSCWTIIGTESVEFSFSTSLACTLEPVTPVPLISTLELSGGGDVATLELHGENFHAGLKVWFGDVEAETMYRSPRSLVCVVPDVAAFCSDWRWLRAPITIPMSLVRADGLFYPSAFSFTYTPEYSVRPGHPGVPEPATDADALLESIHQEFTRTNFHLFIQT
# B6: FOXO3, O43524 (protein)
# chain: MAEAPASPAPLSPLEVELDPEFEPQSRPRSCTWPLQRPELQASPAKPSGETAADSMIPEEEDDEDDEDGGGRAGSAMAIGGGGGSGTLGSGLLLEDSARVLAPGGQDPGSGPATAAGGLSGGTQALLQPQQPLPPPQPGAAGGSGQPRKCSSRRNAWGNLSYADLITRAIESSPDKRLTLSQIYEWMVRCVPYFKDKGDSNSSAGWKNSIRHNLSLHSRFMRVQNEGTGKSSWWIINPDGGKSGKAPRRRAVSMDNSNKYTKSRGRAAKKKAALQTAPESADDSPSQLSKWPGSPTSRSSDELDAWTDFRSRTNSNASTVSGRLSPIMASTELDEVQDDDAPLSPMLYSSSASLSPSVSKPCTVELPRLTDMAGTMNLNDGLTENLMDDLLDNITLPPSQPSPTGGLMQRSSSFPYTTKGSGLGSPTSSFNSTVFGPSSLNSLRQSPMQTIQENKPATFSSMSHYGNQTLQDLLTSDSLSHSDVMMTQSDPLMSQASTAVSAQNSRRNVMLRNDPMMSFAAQPNQGSLVNQNLLHHQHQTQGALGGSRALSNSVSNMGLSESSSLGSAKHQQQSPVSQSMQTLSDSLSGSSLYSTSANLPVMGHEKFPSDLDLDMFNGSLECDMESIIRSELMDADGLDFNFDSLISTQNVVGLNVGNFTGAKQASSQSWVPG
# B7: LRP6, O75581 (protein)
# chain: MGAVLRSLLACSFCVLLRAAPLLLYANRRDLRLVDATNGKENATIVVGGLEDAAAVDFVFSHGLIYWSDVSEEAIKRTEFNKTESVQNVVVSGLLSPDGLACDWLGEKLYWTDSETNRIEVSNLDGSLRKVLFWQELDQPRAIALDPSSGFMYWTDWGEVPKIERAGMDGSSRFIIINSEIYWPNGLTLDYEEQKLYWADAKLNFIHKSNLDGTNRQAVVKGSLPHPFALTLFEDILYWTDWSTHSILACNKYTGEGLREIHSDIFSPMDIHAFSQQRQPNATNPCGIDNGGCSHLCLMSPVKPFYQCACPTGVKLLENGKTCKDGATELLLLARRTDLRRISLDTPDFTDIVLQLEDIRHAIAIDYDPVEGYIYWTDDEVRAIRRSFIDGSGSQFVVTAQIAHPDGIAVDWVARNLYWTDTGTDRIEVTRLNGTMRKILISEDLEEPRAIVLDPMVGYMYWTDWGEIPKIERAALDGSDRVVLVNTSLGWPNGLALDYDEGKIYWGDAKTDKIEVMNTDGTGRRVLVEDKIPHIFGFTLLGDYVYWTDWQRRSIERVHKRSAEREVIIDQLPDLMGLKATNVHRVIGSNPCAEENGGCSHLCLYRPQGLRCACPIGFELISDMKTCIVPEAFLLFSRRADIRRISLETNNNNVAIPLTGVKEASALDFDVTDNRIYWTDISLKTISRAFMNGSALEHVVEFGLDYPEGMAVDWLGKNLYWADTGTNRIEVSKLDGQHRQVLVWKDLDSPRALALDPAEGFMYWTEWGGKPKIDRAAMDGSERTTLVPNVGRANGLTIDYAKRRLYWTDLDTNLIESSNMLGLNREVIADDLPHPFGLTQYQDYIYWTDWSRRSIERANKTSGQNRTIIQGHLDYVMDILVFHSSRQSGWNECASSNGHCSHLCLAVPVGGFVCGCPAHYSLNADNRTCSAPTTFLLFSQKSAINRMVIDEQQSPDIILPIHSLRNVRAIDYDPLDKQLYWIDSRQNMIRKAQEDGSQGFTVVVSSVPSQNLEIQPYDLSIDIYSRYIYWTCEATNVINVTRLDGRSVGVVLKGEQDRPRAVVVNPEKGYMYFTNLQERSPKIERAALDGTEREVLFFSGLSKPIALALDSRLGKLFWADSDLRRIESSDLSGANRIVLEDSNILQPVGLTVFENWLYWIDKQQQMIEKIDMTGREGRTKVQARIAQLSDIHAVKELNLQEYRQHPCAQDNGGCSHICLVKGDGTTRCSCPMHLVLLQDELSCGEPPTCSPQQFTCFTGEIDCIPVAWRCDGFTECEDHSDELNCPVCSESQFQCASGQCIDGALRCNGDANCQDKSDEKNCEVLCLIDQFRCANGQCIGKHKKCDHNVDCSDKSDELDCYPTEEPAPQATNTVGSVIGVIVTIFVSGTVYFICQRMLCPRMKGDGETMTNDYVVHGPASVPLGYVPHPSSLSGSLPGMSRGKSMISSLSIMGGSSGPPYDRAHVTGASSSSSSSTKGTYFPAILNPPPSPATERSHYTMEFGYSSNSPSTHRSYSYRPYSYRHFAPPTTPCSTDVCDSDYAPSRRMTSVATAKGYTSDLNYDSEPVPPPPTPRSQYLSAEENYESCPPSPYTERSYSHHLYPPPPSPCTDSS
# B8: SCML1, Q9UN30 (protein)
# chain: MMSNSSSEIDVIKTRIPTYDEDDNTILYAYETKPEFVNKEPNIVSDASCNTEEQLKTVDDVLIHCQVIYDALQNLDKKIDVIRRKVSKIQRFHARSLWTNHKRYGYKKHSYRLVKKLKLQKMKKNEVYETFSYPESYSPTLPVSRRENNSPSNLPRPSFCMEEYQRAELEEDPILSRTPSPVHPSDFSEHNCQPYYASDGATYGSSSGLCLGNPRADSIHNTYSTDHASAAPPSVTRSPVENDGYIEEGSITKHPSTWSVEAVVLFLKQTDPLALCPLVDLFRSHEIDGKALLLLTSDVLLKHLGVKLGTAVKLCYYIDRLKQGKCFEN
# Biological target: nucleoprotein N of Crimean-Congo hemorrhagic fever virus
# Test: AlphaScreen luminescence signal relative to Venus negative control (fold); higher = stronger binding to CCHFV N
# Experimental: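 AlphaScreen binding of cell-free made, FLAG-GST-tagged human transcription factors and regulators (crude translation products) to biotinylated N protein; signal as fold of the FLAG-GST-Venus control. One pass.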
row,Binder,AlphaScreen luminescence signal
1,B1,2.33
2,B2,1.81
3,B3,3.58
4,B4,3.53
5,B5,3.86
6,B6,5.07
7,B7,2.84
8,B8,1.26
